# Out of some 320,000 compounds screened, about 200 (0.062%) were called active. The inconclusive results got no clear call from the source; some entries with a clear call stand among them for comparison. The call rests on the fitted dose curve; in most records, active means well fitted activation curve with a large enough effect; inconclusive means small, poorly fitted or top-dose-only effect; inactive means no such curve, though single readings can be large or run the other way. Potencies of inconclusive entries are left out as doubtful fits.
# Assay: qHTS assay for re-activators of p53 using a Luc reporter; further: nearly all actives have a fitted effect of over 45% in size; on activity change, positive = activation: % of control where 0% means no effect
# Conditions: H1299 p53-A138V BP100-luciferase reporter, luminescence, 24 h; series mostly up to 92.2 µM; activity change, positive = activation: at the top concentration
# How it was run: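 H1299 (p53-null), stable ts p53-A138V + BP100-Luc; 1000 cells/well, Opti-MEM/10% FBS; cpd 4 pt, 1:5; 24 h, 37 deg C, 5% CO2; detection reagent 10 min RT; luminescence.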
# Potency means the concentration at half of the fitted maximal effect; tags describe the fitted curve by direction and shape.
Compound,Potency,"activity change, positive = activation"
Cc1ccc(C(=O)Nc2ccc(N3CCN(C)CC3)cc2)cc1C,"inconclusive [activator, full curve, poor fit]",
COCC(C)N=C1NN=C(c2c[nH]c3ccccc23)CS1 (centres undefined),"inconclusive [activator, partial curve, poor fit]",
COc1cccc(NC(=O)CSc2nnnn2C(C)C)c1,"inconclusive [activator, single point]",
C=C1C(=O)O[C@@H]2[C@H]1CC[C@H](C)[C@]1(O)CCC(=O)[C@@]21C,"inconclusive [activator, partial curve, poor fit]",
Cc1cc(NC(=O)CSCC(=O)Nc2nc3ccc(F)cc3s2)no1,"inconclusive [activator, partial curve, poor fit]",
CCc1ccc(C(=O)/C=C/NCc2ccc(F)cc2)cc1,"inconclusive [activator, single point]",
COc1cccc(-c2nc(-c3cccs3)no2)c1,"inconclusive [activator, partial curve, poor fit]",
Oc1ccc(O)c(Cc2nc3ccccc3s2)c1,,inactive: -17%
CN(C)c1ccc(NC(=O)c2cccc(C(=O)Nc3ccc(N(C)C)cc3)n2)cc1,"inconclusive [activator, full curve]",
Cc1ccccc1SCCNC(=O)c1ccccc1Br,,inactive: 3.46%
Nc1ccc2oc(-c3cccs3)nc2c1,"inconclusive [activator, partial curve, poor fit]",
CNc1ncc(C(=O)c2ccc(-c3ccccc3)cc2)s1,"inconclusive [activator, full curve, poor fit]",
Cc1scc(C(=O)N/N=C/c2ccsc2)c1C,"inconclusive [activator, partial curve, poor fit]",
CC(C)CSC1=NSC2=NC(=O)/C(=C\c3ccccc3)C(=N)N12,"inconclusive [activator, partial curve, poor fit]",
CC(C)SC1=NC(C)(C)C=C(/C=C/c2c(Cl)cccc2Cl)N1,"inconclusive [activator, single point]",
CSc1ccc(/C=N/NC(=O)c2cccc(Cl)c2)cc1,active: 10 µM,
CN(CCNC(=O)c1ccc(/C=N/O)nc1)Cc1ccccc1,"inconclusive [activator, single point]",
Cc1ccc(C)c(-c2csc(-c3cccnc3)n2)c1,"inconclusive [activator, partial curve, poor fit]",
CC(C)(C)CC(C)(C)NC(=S)NC1CCN(Cc2ccccc2)CC1,"inconclusive [activator, single point]",
COc1ccc(Nc2nc(-c3ccccc3O)nc3ccccc23)cc1,,inactive: 1.6%
COc1cccc(/C=C2\CCC(C3CCCC3)C2=O)c1 (centres undefined),"inconclusive [activator, full curve, poor fit]",
CC(Oc1ccc(Br)cc1)C(=O)Nc1nc(-c2ccccn2)cs1 (centres undefined),"inconclusive [activator, partial curve, poor fit]",
O=C(CCC(=O)OCc1cccc(C(=O)Oc2ccccc2)c1)Nc1cccc2ccccc12,"inconclusive [activator, full curve, poor fit]",

Compound,Potency,"activity change, positive = activation"
O=C(O)CSc1ccc2ccccc2n1,,inactive: 1.86%
O=C(Nc1ccccc1)c1cc2ccc3ccccc3c2s1,"inconclusive [activator, partial curve, poor fit]",
Cc1ccc(S(=O)(=O)c2cn(CC(=O)Nc3ccccc3)c3ccc(F)cc3c2=O)cc1,"inconclusive [activator, partial curve, poor fit]",
COc1ccccc1Cc1nc(-c2ccc(C)cc2)no1,"inconclusive [activator, single point]",
O=C(Nc1cccn(Cc2c(Cl)cccc2Cl)c1=O)C1CC1,,inactive: -2.09%
O=C1COc2ccc(C(=O)/C=C/c3ccccc3)cc2N1,"inconclusive [activator, partial curve, poor fit]",
COc1ccc2nc(NC(=O)C3CCCO3)sc2c1 (centres undefined),,inactive: 1.12%
Cc1ccc(Nc2ccc(C(=O)O)cc2[N+](=O)[O-])cc1,,inactive: -0.0609%
CC(C)CC(=O)N1CCN(Cc2ccc(Br)cc2)CC1,,inactive: -78.5%
Cc1ccccc1OCCOc1cccc(/C=N/NC(=O)Cc2nnc(N)s2)c1,"inconclusive [activator, single point]",
COc1ccc2[nH]c3c(=O)n(N)c(C)nc3c2c1,"inconclusive [activator, single point]",
CC1(C)CC(=O)c2sc(NC(=O)c3cccs3)nc2C1,"inconclusive [activator, full curve, poor fit]",
O=C(NC(=S)Nc1ccc(N2CCCCC2)cc1)c1ccc2c(c1)OCCO2,"inconclusive [activator, partial curve, poor fit]",
CCOc1ccc(C(=O)Nc2nccs2)cc1[N+](=O)[O-],"inconclusive [activator, full curve, poor fit]",
CCN(CC)c1ccc(C(=O)Nc2cccc(F)c2)cc1,"inconclusive [activator, partial curve, poor fit]",
Cc1ccc(S(=O)(=O)N2CCC(NC(=O)c3cccc(F)c3)CC2)cc1,"inconclusive [activator, single point]",
N/C(=N\OC(=O)c1ccc2ccccc2c1)c1ccccc1Cl,active: 20 µM,
O=C1CCCN1CCCNc1ncnc2c1cnn2-c1ccc(Cl)cc1,"inconclusive [activator, partial curve, poor fit]",
N#C/C(=C\C=C\c1ccccc1[N+](=O)[O-])C(=O)NC1CCCCC1,,inactive: -9.45%
O=C(Nc1ccc2oc(-c3ccccc3)nc2c1)C1CCCO1 (centres undefined),"inconclusive [activator, partial curve, poor fit]",
O=C(Nc1ccncc1)c1cc(-c2cccc(Br)c2)nc2ccccc12,,inactive: -6.01%
O=C(NC1CC1)C1CCN(C(=O)c2ccc(Cl)cc2Cl)CC1,,inactive: -0.69%
COc1cc2ncnc(NCCCN3CCOCC3)c2cc1OC,,inactive: 6.37%

Compound,Potency,"activity change, positive = activation"
CCOC(=O)N1CCN(CCC(=O)Nc2cccc(Cl)c2C)CC1,"inconclusive [activator, single point]",
O=C(c1cccs1)N1CCN(c2ccccc2)CC1,,inactive: -0.846%
Cc1ccc(-c2c(C(=O)N/N=C/c3ccsc3)nnn2-c2nonc2N)cc1,,inactive: -0.754%
O=C(NC1=NCCS1)c1csc2ccccc12,"inconclusive [activator, partial curve, poor fit]",
c1ccc(-c2ccc(-c3cn4c(n3)CCC4)cc2)cc1,"inconclusive [activator, partial curve, poor fit]",
Cc1cccnc1NC(=S)NC(=O)c1cccs1,"inconclusive [activator, partial curve, poor fit]",
N/C(=N\OC(=O)c1cccnc1)c1ccccc1Cl,"inconclusive [activator, partial curve, poor fit]",
COc1ccc(NC(=O)N(Cc2cccs2)Cc2cc3cc4c(cc3[nH]c2=O)OCO4)cc1,,inactive: -5.76%
CC(=O)c1c(C)oc(C)c1CSCc1ccc(C(=O)O)o1,"inconclusive [activator, single point]",
CC(C)c1ccc(C(=O)NN2C(=O)C3CCCCC3C2=O)cc1 (centres undefined),"inconclusive [activator, full curve]",
Cc1c(-c2nc(N)nc(Nc3ccc(F)cc3)n2)oc2ccccc12,"inconclusive [activator, full curve, poor fit]",
Nc1c(-c2cccs2)cnc2c(-c3ccc(F)cc3)cnn12,"inconclusive [activator, full curve, poor fit]",
Cc1cccc(NC(=O)C(=O)NCCCc2ccccc2)c1,"inconclusive [activator, full curve, poor fit]",
CC1CCc2nc(NC(=O)c3ccco3)sc2C1 (centres undefined),,inactive: 12.1%
CN(C(=O)c1ccco1)c1nnc(-c2ccc(F)cc2)s1,"inconclusive [activator, full curve, poor fit]",
O=C(Nc1ccc2c(c1)CCC2)c1cnc(Cl)c(Cl)c1,"inconclusive [activator, partial curve, poor fit]",
O=C(N/N=C/C(Br)=C/c1ccccc1)c1n[nH]c2c1CCC2,"inconclusive [activator, partial curve, poor fit]",
O=C(CSc1nnc(-c2ccncc2)o1)Nc1cc(F)ccc1F,"inconclusive [activator, full curve, poor fit]",
COc1cccc2cc(C(=O)Nc3ccc(F)cc3)c(=Nc3ccc(C(=O)O)cc3)oc12,"inconclusive [activator, single point]",
COc1ccc(CCN(C)Cc2ccc(OC)c(OCc3ccccc3)c2)cc1OC,,inactive: -5.43%
COc1ccccc1NC(CC(=O)c1ccccc1)C(=O)OCC(=O)c1ccc(F)cc1 (centres undefined),"inconclusive [activator, full curve, poor fit]",
COc1ccc2c(c1)CC/C(=C/c1ccco1)C2=O,"inconclusive [activator, partial curve, poor fit]",
COc1cccc(-c2nnc(NC(=O)c3ccc(Cl)s3)o2)c1,"inconclusive [activator, partial curve, poor fit]",
